Experimental data: PubChem BioAssay AID1345083 (National Center for Advancing Translational Sciences (NCATS), 2018)
Where “and” joins values, the source holds several entries; their conditions need not be identical. Equal entries are not always repeated. The whole screen tested about 94,000 compounds, of which about 6,200 (6.6%) were called active. The inconclusive results got no clear call from the source; some entries with a clear call stand among them for comparison. Calls follow the shape of the dose curve; as a rule, active = well fitted inhibition curve with a large enough effect; inconclusive = small, poorly fitted or top-dose-only effect; inactive = flat fitted curve, though single readings scatter. Potencies beside an inconclusive call are fits to weak or partial responses and may not hold up.

Experiment: Cytotoxic Profiling in HEK 293 Cell Line of Diverse Libraries Using Quantitative High-Throughput Screening; also: nearly all actives have a fitted effect of over 60% in size
Settings: HEK 293 viability, ATP luminescence (CellTiter-Glo), 48-72 h; activity change, negative = cytotoxicity: at 115 µM (top of the series) unless noted; series mostly up to 115 µM
Summary of the method: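 Cells seeded first (HEK 293, 250 cells/well), then compound added by pintool. Incubation ran 48 or 72 hr at 37 degree Celsius. CellTiter-Glo was added and luminescence imaged after 10 min at room temperature.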
% is scaled to controls: 0 for no effect and ±100 for the full control effect; potency is read from the fitted curve at half-maximal effect; tags tell the direction and shape of the fitted curve.

| SMILES | Potency | activity change, negative = cytotoxicity | outcome |
| --- | --- | --- | --- |
| CC(C)c1ccc(CN2CC(CNC(=O)C3CCOCC3)C3(C2)CN(c2ccccc2)C3)cc1 (centres undefined) | inconclusive: 79.4 µM [inhibitor, partial curve, poor fit] |  |  |
| O=c1cc(C2CC(NC3CCC4(CCNCC4)CC3)C2)nc(C2CC2)[nH]1 (centres undefined) |  | inactive: -4.62% |  |
| O=C(NCCc1ccccc1F)C1CCN(c2ccnc3ccnn23)CC1 | inconclusive: 44.7 µM [inhibitor, partial curve] |  |  |
| COc1cccc(Nc2cn(C)c(=O)n3cc(COc4ccccc4)nc23)c1 | inconclusive: 100 µM [inhibitor, partial curve, poor fit] |  |  |
| O=C1N(C2CCCCC2)C[C@H]2CN(Cc3ccc(C(F)(F)F)cc3)CCN12 | inconclusive: 35.5 µM [inhibitor, partial curve, poor fit] |  |  |
| COc1ccc(NC(=O)N2CCOC(c3ccc(Cl)cc3)C2)c(C)c1 (centres undefined) | inconclusive: 56.2 µM [inhibitor, partial curve, poor fit] |  |  |
| COCc1ccc2c(c1)c(OC(C)(C)C(=O)Nc1ccccn1)nn2CCC(C)C | active: 89.1 µM |  |  |
| COc1ccc(CCNc2ncnc3c2CN(c2ccccc2)C(=O)CN3C)cc1 | inconclusive: 35.5 µM [inhibitor, partial curve, poor fit] |  |  |
| COc1ccc(CCNC(=O)c2nc3sccn3c2-c2ccncc2)cc1 | inconclusive: 28.2 µM [inhibitor, full curve, poor fit] |  |  |
| CCc1[nH]nc(C(=O)N2CCC(c3[nH]ncc3-c3cccc(C)c3)CC2)c1C | inconclusive: 56.2 µM [inhibitor, partial curve, poor fit] |  |  |
| CC1CCN(CC2CCCN(S(=O)(=O)c3ccc(F)cc3)CC2)CC1 (centres undefined) |  | inactive: -28% |  |
| COc1ccccc1-c1ccc(CN2CCC(NC(=O)N(C)C)C2)cc1 (centres undefined) | inconclusive: 39.8 µM [inhibitor, partial curve] |  |  |
| Cn1cc(CN2CCC(C3CCN(S(C)(=O)=O)CC3)C2)c2ccccc21 (centres undefined) | inconclusive: 35.5 µM [inhibitor, partial curve, poor fit] |  |  |
| O=C(C1CCC1)N1c2ccccc2CC1c1noc(C2CCOCC2)n1 (centres undefined) | inconclusive: 89.1 µM [inhibitor, single point] |  |  |
| Cc1nn2c(c1-c1ccnn1C(C)C)N(CC1CCOCC1)CCC2 | active: 44.7 µM |  |  |
| Cn1cnc(C(=O)NCC(=O)N2CCCCCNC(=O)CC2c2ccccc2)c1 (centres undefined) |  |  | inactive |
| O=C(NCc1cccnc1)C1CCN(c2ccnc3ccnn23)CC1 | inconclusive: 63.1 µM [inhibitor, full curve] |  |  |
| CCn1ccnc1CN1CCCC1C(=O)Nc1ccc(-c2cccc(F)c2)cc1 (centres undefined) | active: 35.5 µM |  |  |
| Cc1c(CNC(=O)c2ccc(C3CCNC3)cc2)oc2ccccc12 (centres undefined) | inconclusive: 89.1 µM [inhibitor, single point] |  |  |
| Cc1ccc([S+](=O)([O-])N2CCN(C(=O)c3nc4cccnc4n(CCc4ccccc4)c3=O)CC2)cc1 | inconclusive: 89.1 µM [inhibitor, single point] |  |  |
| Clc1cccc(CN2CC[C@H](c3nc4ccccc4[nH]3)C2)c1 | active: 20 µM |  |  |
| O=C1CC2(CCN(C(=O)C3CCN(C(=O)c4ccccc4Cl)CC3)CC2)Oc2ccccc2N1 | inconclusive: 50.1 µM [inhibitor, partial curve, poor fit] |  |  |

| SMILES | Potency | activity change, negative = cytotoxicity | outcome |
| --- | --- | --- | --- |
| COc1ccc(NC(=O)CN2C(=O)NC(c3ccc(Cl)cc3)C3=C2COC3=O)cc1Cl (centres undefined) | inconclusive: 12.6 µM [inhibitor, partial curve, poor fit] |  |  |
| NC(=O)c1cc[nH]c1C1CCCN(S(=O)(=O)c2ccc3c(c2)CCC3)C1 (centres undefined) | inconclusive: 22.4 µM [inhibitor, partial curve, poor fit] |  |  |
| CCC(c1cccs1)N1C(=O)[C@H]2CN(S(=O)(=O)c3cc(C)ccc3C)C[C@H]2C1=O (some centres undefined) | inconclusive: 50.1 µM [inhibitor, partial curve, poor fit] |  |  |
| Cc1cc(Cn2cc3c4c(cccc42)[C@H](CC(C)C)N[C@H](C(=O)NCc2nccs2)C3)no1 | active: 22.4 µM |  |  |
| O=C1NCc2ccccc2CC12CCN(Cc1ccccc1Cl)C2 (centres undefined) | inconclusive: 89.1 µM [inhibitor, partial curve] |  |  |
| N#Cc1cccc(C(=O)N2CCNc3cnc(Nc4cccc(F)c4)nc3C2)c1 | inconclusive: 56.2 µM [inhibitor, partial curve, poor fit] |  |  |
| CCc1cc(=O)n(CC(=O)Nc2cc(C)cc(C)c2)c(N2CCOCC2)n1 | inconclusive: 39.8 µM [inhibitor, partial curve] |  |  |
| FC(F)(F)Oc1cccc(CN2CCNc3cc(Nc4cccnc4)ncc3C2)c1 | inconclusive: 56.2 µM [inhibitor, full curve, poor fit] |  |  |
| O=C(CC1CCCCC1)N1CCC2(CC1)NC(=O)N(c1ccccc1)N2 | inconclusive: 17.8 µM [inhibitor, full curve] |  |  |
| CC1=C(C(=O)OC(C)C)C(c2ccc(Cl)cc2)N2C(CC(=O)N3CCCC3)=CSC2=N1 (centres undefined) | inconclusive: 44.7 µM [inhibitor, partial curve, poor fit] |  |  |
| COc1cccc(-c2cc(C3CCN(C(=O)c4cc(C)ccc4C)CC3)[nH]n2)c1 | active: 39.8 µM |  |  |
| O=C(NCC1CC1)c1ccc2nc(-c3ccncc3)oc2c1 |  | inactive: 2.32% |  |
| CC(C)(Oc1nn(Cc2cccc(Cl)c2)c2ccccc12)C(=O)N1CCCC1 | inconclusive: 70.8 µM [inhibitor, partial curve, poor fit] |  |  |
| COc1cc(NC(=O)N2CC(c3noc(-c4ccccc4)n3)C2)cc(OC)c1OC | inconclusive: 50.1 µM [inhibitor, partial curve, poor fit] |  |  |
| O=C1[C@H]2CN(Cc3ccc(F)cc3F)C[C@H]2C(=O)N1CCN1CCc2ccccc2C1 | inconclusive: 31.6 µM [inhibitor, partial curve, poor fit] |  |  |
| O=C(CC1CCCC1)N1CCCC(c2noc(COc3ccccc3F)n2)C1 (centres undefined) | inconclusive: 50.1 µM [inhibitor, partial curve, poor fit] |  |  |
| CN(C)Cc1nnc(C2CC(NC(=O)c3ccnnc3)C2)n1C (centres undefined) |  | inactive: -6.66% |  |
| CCc1nc(N2CCC(n3c(=O)[nH]c4ccccc43)CC2)c2cnn(C)c2n1 | inconclusive: 50.1 µM [inhibitor, partial curve, poor fit] |  |  |
| COc1cccc(CC(=O)N2CCCN(c3cc(-c4ccccc4)[nH]n3)CC2)c1 | active: 35.5 µM |  |  |
| COc1ccc(Cn2c(=O)c(C(=O)NCCc3ccc(F)cc3)nc3cccnc32)cc1 | inconclusive: 50.1 µM [inhibitor, partial curve, poor fit] |  |  |
| CN(C)c1ccc(CN2CCOC[C@H]2c2ncc(-c3cccc(F)c3)[nH]2)cc1 | inconclusive: 112 µM [inhibitor, single point] |  |  |
| COCCN1C(=O)CCc2cc(NC(=O)c3cncc(Br)c3)ccc21 | inconclusive: 25.1 µM [inhibitor, full curve] |  |  |

| SMILES | Potency | activity change, negative = cytotoxicity | outcome |
| --- | --- | --- | --- |
| COc1ccccc1-n1c(=O)c(C(=O)N2CCN(C(=O)Nc3ccc(Cl)cc3)CC2)nc2cccnc21 |  |  | inactive |
| COc1ccc(-c2ccc3ncc(Nc4ccc(C(N)=O)cc4)n3n2)cc1OC | inconclusive: 70.8 µM [inhibitor, partial curve] |  |  |
| CN(C(=O)c1ccc(C(F)(F)F)cc1)C1CCCc2ccccc21 (centres undefined) | inconclusive: 70.8 µM [inhibitor, full curve, poor fit] |  |  |
| COc1ccccc1-c1ccc(CN2CCCCC2C(=O)NCC2CC2)cc1 (centres undefined) | active: 44.7 µM and inconclusive: 44.7 µM [inhibitor, partial curve, poor fit] |  |  |
| CN1CCC2(Cc3ccccc3CN(C(=O)CN)C2)C1 (centres undefined) |  | inactive: -1.2% [at 172 µM] |  |
| O=C(c1cccs1)N1CCCn2cc(-c3ccccc3F)nc21 | inconclusive: 50.1 µM [inhibitor, partial curve, poor fit] |  |  |
| CCOC(=O)c1ccc(N2CCN(C(=O)C3=CC(C)(C)COc4ccc(OC)cc43)CC2)cc1 | active: 35.5 µM |  |  |
| c1cnc(N2CCOCC2)c(CN(Cc2ccsc2)CC2CCCO2)c1 (centres undefined) |  | inactive: -24.5% |  |
| CO[C@H]1C(=O)N(C2CCN(C(=O)Cn3ccc(C)n3)CC2)[C@H]1c1ccncc1 |  | inactive: -4.67% |  |
| CCC(C)NC(=O)Cc1csc2nc(C)c(-c3cc(C)n(-c4ccc(C)cc4)n3)c(=O)n12 (centres undefined) |  | inactive: -9.17% |  |
| Cn1ncc2c(C(=O)N3CCN(Cc4ccccc4)CC3)cc(-c3ccccc3C(F)(F)F)nc21 | active: 44.7 µM |  |  |
| COc1ccc(NC(=O)C2(C)CCc3cnc(Nc4ccccc4)nc32)cn1 (centres undefined) | active: 100 µM |  |  |
| CC(=O)N1CCN(C(=O)C2CCN(c3nccc(Nc4ccc(C)cc4)n3)CC2)CC1 |  | inactive: -14.9% |  |
| COc1cccc(-c2ccc(C(=O)NCCNC(=O)Cc3ccc(F)cc3)cc2)c1 | active: 89.1 µM |  |  |
| Cc1noc(C)c1CC(=O)N1CCC2(CC1)CC(N(Cc1ccccc1)C1CC1)CCO2 (centres undefined) | inconclusive: 89.1 µM [inhibitor, single point] |  |  |
| COc1ccc(-c2ccc3ncc(Nc4cccc(F)c4)n3n2)cn1 | active: 63.1 µM |  |  |
| Cc1ccc(-c2ncc(C(=O)N3CCC[C@H](N)C3)c(=O)[nH]2)cc1 |  | inactive: 4.19% |  |
| COCCN1CCCCCC(O)c2cc(C(=O)N3CC=C(c4ccccc4)CC3)ccc21 (centres undefined) | inconclusive: 56.2 µM [inhibitor, partial curve, poor fit] |  |  |
| O=C1NC(=NC2CCCCC2)C2(CCN(Cc3ccccc3)C2)N1c1cc(F)cc(F)c1 (centres undefined) | inconclusive: 50.1 µM [inhibitor, partial curve, poor fit] |  |  |
| CC(=O)N1CCC(C(=O)N2CCC(c3nc4ncccc4[nH]3)CC2)C1 (centres undefined) |  | inactive: -3.81% |  |
